Measurements: the supplement of paper PMC5740061
This is one part of the list. Most values come without repeats; read them as rough.

B1: TB1G1 variant; numbered along this chain (parent)
chain: PDEYIERAKECCKKGDIQCCLRYFEESGDPNVMLICLFCP

Variants of: B1
Experiment: TEAD binding enrichment after two sorts vs input, relative to TB1G1 (log2 fold-change); higher = improved TEAD binding
Conditions: with TEAD1 YAP-binding domain (194-411), TEAD concentration: 20 nM, staining: monovalent 2-step
For E6R, the “TEAD binding enrichment (log2)” value was -1.78. With E6N the “TEAD binding enrichment (log2)” value was -0.816. E6D was tested, and the “TEAD binding enrichment (log2)” value was -0.602. With E6A the “TEAD binding enrichment (log2)” value was -0.676. In the case of E6L, the “TEAD binding enrichment (log2)” value is reported as -0.404. E6V was tested, and the “TEAD binding enrichment (log2)” value was -1.55. In the case of E6Q, the “TEAD binding enrichment (log2)” value is reported as -2.41. In the case of E6F, the “TEAD binding enrichment (log2)” value is reported as -1.96. With E6I the “TEAD binding enrichment (log2)” value was -1.56. With E6W the “TEAD binding enrichment (log2)” value was -1.53. In the case of E6S, the “TEAD binding enrichment (log2)” value is reported as -1.09. E6Y was tested, and the “TEAD binding enrichment (log2)” value was -2.33. For E6G, the “TEAD binding enrichment (log2)” value was -1.15. In the case of E6P, the “TEAD binding enrichment (log2)” value is reported as -2.84. For E6H, the “TEAD binding enrichment (log2)” value was -1.57. In the case of E6K, the “TEAD binding enrichment (log2)” value is reported as -1.13. For E6T, the “TEAD binding enrichment (log2)” value was -0.921. With E6M the “TEAD binding enrichment (log2)” value was -2.04. P1N was tested, and the “TEAD binding enrichment (log2)” value was -0.491. P1W was tested, and the “TEAD binding enrichment (log2)” value was -9.1. With P1K the “TEAD binding enrichment (log2)” value was -0.294. P1F was tested, and the “TEAD binding enrichment (log2)” value was -1.3. In the case of P1T, the “TEAD binding enrichment (log2)” value is reported as -0.568. With P1A the “TEAD binding enrichment (log2)” value was 0.364. In the case of P1M, the “TEAD binding enrichment (log2)” value is reported as -1.02. P1V was tested, and the “TEAD binding enrichment (log2)” value was -0.595. With P1I the “TEAD binding enrichment (log2)” value was -2.27. For P1D, the “TEAD binding enrichment (log2)” value was -0.648. With P1Y the “TEAD binding enrichment (log2)” value was -3.33. P1R was tested, and the “TEAD binding enrichment (log2)” value was -2.1. With P1G the “TEAD binding enrichment (log2)” value was 1.7. P1L was tested, and the “TEAD binding enrichment (log2)” value was -2.9. P1S was tested, and the “TEAD binding enrichment (log2)” value was 0.135. In the case of P1H, the “TEAD binding enrichment (log2)” value is reported as -0.884. In the case of P1Q, the “TEAD binding enrichment (log2)” value is reported as -0.836. P1E was tested, and the “TEAD binding enrichment (log2)” value was 1.12. In the case of Y4A, the “TEAD binding enrichment (log2)” value is reported as 0.259. In the case of Y4N, the “TEAD binding enrichment (log2)” value is reported as 0.0419. Y4K was tested, and the “TEAD binding enrichment (log2)” value was -1.58. In the case of Y4S, the “TEAD binding enrichment (log2)” value is reported as -0.738. With Y4F the “TEAD binding enrichment (log2)” value was 0.668. Y4P was tested, and the “TEAD binding enrichment (log2)” value was 1.02. In the case of Y4M, the “TEAD binding enrichment (log2)” value is reported as -0.684. In the case of Y4V, the “TEAD binding enrichment (log2)” value is reported as -0.749. Y4H was tested, and the “TEAD binding enrichment (log2)” value was -1.9. With Y4L the “TEAD binding enrichment (log2)” value was -1.81. For Y4G, the “TEAD binding enrichment (log2)” value was -2.21. For Y4D, the “TEAD binding enrichment (log2)” value was -1.79. For Y4R, the “TEAD binding enrichment (log2)” value was -0.939. With Y4W the “TEAD binding enrichment (log2)” value was -2.47. In the case of Y4I, the “TEAD binding enrichment (log2)” value is reported as -0.405. With Y4Q the “TEAD binding enrichment (log2)” value was 0.291. With Y4T the “TEAD binding enrichment (log2)” value was -0.869. With Y4E the “TEAD binding enrichment (log2)” value was -6.52. D2F was tested, and the “TEAD binding enrichment (log2)” value was -3.41. With D2I the “TEAD binding enrichment (log2)” value was -0.698. With D2L the “TEAD binding enrichment (log2)” value was -3.53. With D2T the “TEAD binding enrichment (log2)” value was -0.52. For D2M, the “TEAD binding enrichment (log2)” value was -1.86. With D2W the “TEAD binding enrichment (log2)” value was -2.95. With D2V the “TEAD binding enrichment (log2)” value was -2.34. With D2A the “TEAD binding enrichment (log2)” value was -1.43. D2R was tested, and the “TEAD binding enrichment (log2)” value was -7.12. With D2N the “TEAD binding enrichment (log2)” value was -0.157. For D2Q, the “TEAD binding enrichment (log2)” value was -0.201. For D2K, the “TEAD binding enrichment (log2)” value was -1.07. In the case of D2G, the “TEAD binding enrichment (log2)” value is reported as -0.319. For D2E, the “TEAD binding enrichment (log2)” value was 1.16. D2P was tested, and the “TEAD binding enrichment (log2)” value was -2.11. For D2H, the “TEAD binding enrichment (log2)” value was -1.05. With D2Y the “TEAD binding enrichment (log2)” value was -1.63. In the case of D2S, the “TEAD binding enrichment (log2)” value is reported as -1.01. I5W was tested, and the “TEAD binding enrichment (log2)” value was -7.46. I5N was tested, and the “TEAD binding enrichment (log2)” value was -1.34. With I5E the “TEAD binding enrichment (log2)” value was -1.23. I5S was tested, and the “TEAD binding enrichment (log2)” value was -2.04. I5V was tested, and the “TEAD binding enrichment (log2)” value was -0.274. For I5P, the “TEAD binding enrichment (log2)” value was -0.431. I5D was tested, and the “TEAD binding enrichment (log2)” value was -3.47. In the case of I5R, the “TEAD binding enrichment (log2)” value is reported as -3.27. For I5Q, the “TEAD binding enrichment (log2)” value was -1.23. With I5G the “TEAD binding enrichment (log2)” value was -3.97. I5Y was tested, and the “TEAD binding enrichment (log2)” value was -10.9. With I5L the “TEAD binding enrichment (log2)” value was -0.381. With I5K the “TEAD binding enrichment (log2)” value was -1.5. I5F was tested, and the “TEAD binding enrichment (log2)” value was -8.36. In the case of I5T, the “TEAD binding enrichment (log2)” value is reported as -1.77. With I5A the “TEAD binding enrichment (log2)” value was -1.2. For I5M, the “TEAD binding enrichment (log2)” value was -1.87. In the case of I5H, the “TEAD binding enrichment (log2)” value is reported as -2.99. For K9W, the “TEAD binding enrichment (log2)” value was -4.41. For K9R, the “TEAD binding enrichment (log2)” value was -1.3. For K9D, the “TEAD binding enrichment (log2)” value was -0.576. In the case of K9V, the “TEAD binding enrichment (log2)” value is reported as -8.88. With K9A the “TEAD binding enrichment (log2)” value was -1.27. In the case of K9I, the “TEAD binding enrichment (log2)” value is reported as -3.03. With K9Q the “TEAD binding enrichment (log2)” value was 1.1. In the case of K9E, the “TEAD binding enrichment (log2)” value is reported as 3.95. With K9N the “TEAD binding enrichment (log2)” value was 3.31. For K9S, the “TEAD binding enrichment (log2)” value was -0.907. In the case of K9M, the “TEAD binding enrichment (log2)” value is reported as -3.56. In the case of K9P, the “TEAD binding enrichment (log2)” value is reported as -4.5. In the case of K9Y, the “TEAD binding enrichment (log2)” value is reported as -4.96. For K9F, the “TEAD binding enrichment (log2)” value was -3.52. In the case of K9L, the “TEAD binding enrichment (log2)” value is reported as -11.2. With K9H the “TEAD binding enrichment (log2)” value was -1.5. K9T was tested, and the “TEAD binding enrichment (log2)” value was 2.68. In the case of K9G, the “TEAD binding enrichment (log2)” value is reported as -0.48. E3D was tested, and the “TEAD binding enrichment (log2)” value was 0.801. In the case of E3L, the “TEAD binding enrichment (log2)” value is reported as 0.325. With E3F the “TEAD binding enrichment (log2)” value was 0.318. In the case of E3I, the “TEAD binding enrichment (log2)” value is reported as -0.256. In the case of E3W, the “TEAD binding enrichment (log2)” value is reported as -1.4. With E3A the “TEAD binding enrichment (log2)” value was -2.02. In the case of E3M, the “TEAD binding enrichment (log2)” value is reported as 2.57. With E3G the “TEAD binding enrichment (log2)” value was -0.623. E3H was tested, and the “TEAD binding enrichment (log2)” value was -0.307. In the case of E3Y, the “TEAD binding enrichment (log2)” value is reported as -0.357. E3V was tested, and the “TEAD binding enrichment (log2)” value was -1.4. With E3Q the “TEAD binding enrichment (log2)” value was -1.35. E3T was tested, and the “TEAD binding enrichment (log2)” value was 1.19. E3N was tested, and the “TEAD binding enrichment (log2)” value was 0.579. In the case of E3P, the “TEAD binding enrichment (log2)” value is reported as -0.402. In the case of E3K, the “TEAD binding enrichment (log2)” value is reported as -0.5. For E3S, the “TEAD binding enrichment (log2)” value was -0.407. E3R was tested, and the “TEAD binding enrichment (log2)” value was -1.81. With R7W the “TEAD binding enrichment (log2)” value was -1.28. R7K was tested, and the “TEAD binding enrichment (log2)” value was 0.473. For R7D, the “TEAD binding enrichment (log2)” value was -2.25. For R7A, the “TEAD binding enrichment (log2)” value was 0.283. With R7Y the “TEAD binding enrichment (log2)” value was -1.01. For R7P, the “TEAD binding enrichment (log2)” value was -2.49. With R7L the “TEAD binding enrichment (log2)” value was -0.388. For R7T, the “TEAD binding enrichment (log2)” value was -4.07. For R7N, the “TEAD binding enrichment (log2)” value was 0.343. R7H was tested, and the “TEAD binding enrichment (log2)” value was -0.322. In the case of R7G, the “TEAD binding enrichment (log2)” value is reported as 1.31. R7E was tested, and the “TEAD binding enrichment (log2)” value was -0.163. In the case of R7V, the “TEAD binding enrichment (log2)” value is reported as -2.31. In the case of R7I, the “TEAD binding enrichment (log2)” value is reported as -3.98. For R7F, the “TEAD binding enrichment (log2)” value was -1.04. For R7S, the “TEAD binding enrichment (log2)” value was 0.311. In the case of R7M, the “TEAD binding enrichment (log2)” value is reported as -1.06. For R7Q, the “TEAD binding enrichment (log2)” value was -0.484. A8Q was tested, and the “TEAD binding enrichment (log2)” value was -6. For A8K, the “TEAD binding enrichment (log2)” value was -4.73. For A8Y, the “TEAD binding enrichment (log2)” value was -3.35. For A8H, the “TEAD binding enrichment (log2)” value was -7.27. For A8N, the “TEAD binding enrichment (log2)” value was -9.2. With A8I the “TEAD binding enrichment (log2)” value was -8.31. For A8M, the “TEAD binding enrichment (log2)” value was -10.1. For A8D, the “TEAD binding enrichment (log2)” value was -4.17. For A8P, the “TEAD binding enrichment (log2)” value was -4.7. In the case of A8W, the “TEAD binding enrichment (log2)” value is reported as -5.46. For A8E, the “TEAD binding enrichment (log2)” value was -2.66. A8L was tested, and the “TEAD binding enrichment (log2)” value was -9.93. For A8V, the “TEAD binding enrichment (log2)” value was -4.43. A8S was tested, and the “TEAD binding enrichment (log2)” value was -2.79. For A8R, the “TEAD binding enrichment (log2)” value was -5.84. In the case of A8G, the “TEAD binding enrichment (log2)” value is reported as -4.11. For A8F, the “TEAD binding enrichment (log2)” value was -4.33. For A8T, the “TEAD binding enrichment (log2)” value was -3.84. With M33I the “TEAD binding enrichment (log2)” value was -3.17. M33S was tested, and the “TEAD binding enrichment (log2)” value was -10.6.
